Laboratory results: US11643438B2, “Antimicrobial peptides and methods of use” (priority 2018, dated 2023)
Converted amounts (≈) assume the structure as drawn. *1 amine or outer side, *2 acyl side, *3 side chain or, on linkers, in order; H or OH if unused. Where a SMILES comes first, the peptide text is derived from it. [ ]: non-standard residue; d: D form. X2 = CC[C@H](C)C[C@H](C)C[C@H](C)C[C@H](N[*:1])C(=O)[*:2]; X1 = CC[C@@H](C)[C@@H](O[*:1])C(=O)[*:2]; NMeVal(β-OH) = CN[C@H](C(=O)O)C(C)(C)O; aIle = CC[C@@H](C)[C@H](N)C(=O)O; NMeV = CN[C@H](C(=O)O)C(C)C; Sar = CNCC(=O)O

Tested on: A. fumigatus, as well as several other Aspergilli
Test: Antifungal MIC80 assay, summary over Aspergilli
Settings: Aspergillus fumigatus, read-out: minimum MIC80 value

Structure (SMILES): CC[C@H](C)C[C@H](C)C[C@H](C)C[C@@H]1NC(=O)[C@H](C(C)C)N(C)C(=O)[C@@H]([C@H](C)CC)OC(=O)[C@H](C(C)(C)O)N(C)C(=O)[C@H](CC(C)C)NC(=O)[C@H](C(C)C)N(C)C(=O)[C@H]([C@H](C)CC)NC(=O)[C@@H]2CCCN2C(=O)CN(C)C1=O [Compound 1, persephacin] (cyclo(L[NMeVal(β-OH)][X1][NMeV][X2][Sar]P[aIle][NMeV]))
- MIC80: 1.25 µM (≈ 1.34 µg/mL)
